Patent publication EP1214397B1, “METHOD FOR THE SELECTIVE PROTECTION OF PROLIFERATING NORMAL CELLS AND THE SELECTIVE ERADICATION OF TUMOR CELLS HAVING AN INACTIVE P53 PATHWAY” (UNIVERSITA' DEGLI STUDI DI ROMA "LA SAPIENZA", priority 1999, dated 2001)
Where “and” joins values, the source holds several entries; their conditions need not be identical. Equal values may be shown once.

What was measured:
[1] = test system: C3H10T1/2v-src/v-myc; experiment: Focus-forming assay, culture of tumor cells alone (Examples 3, 9); type: cell-based, mouse; conditions: C3H10T1/2 v-src/v-myc alone, 5×10^2 cells per plate; percentage of treated with respect to untreated (=100); 400 nM CD T0-T84; class B drug T24-T72 (40 µM 3FT, 80 µM 2ClAd, 40µM Ara C)
[2] = test system: C3H 10T1/2v-src/v-myc; experiment: Colony formation assay, monoculture (Example 4; Table 9); type: cell-based, mouse; conditions: C3H10T1/2 v-src/v-myc
From the text: (§1) In order to quantify the effects of the combined CD/3FT use of the above example 3, the first, second and third assay series described in example 4 has been carried out on monocultures at a cell density allowing countable colonies.
(§2) The culture conditions, compounds concentrations, and treatments are the same described in example 3, with the exception of the cell system used have been for the first assay series a monoculture of C3H 10T1/2 cells at the clonal densities of 1×10^3, 5×10^3 and 1×10^4, for the second assay series a monoculture of C3H 10T1/2v-src/v-myc cells at the clonal densities of 5×10^2, 1×10^3 and 5×10^3, and for the third assay series a monoculture of L cells at the clonal densities of 5×10^2, 1×10^3 and 5×10^3.
(§3) The results of the assay series described in example 4 above carried out using dihydrocytochalasin B (referred to as H2CB in the table) and 3FT is reported in the following table 9.

[3] = test system: C3H10T1/2; experiment: as above; type: cell-based, mouse
From the text: as §1, §2, §3

[4] = test system: L cells; experiment: Colony formation assay, monoculture (Example 4); type: cell-based; conditions: 5×10^2 cells, 400 nM CD T0-T84, 40 µM 3FT T24-T72
From the text: as §1, §2

[5] = test system: C3H 10T1/2(v-src/v-myc); experiment: Colony forming assay, interference with 3FT toxic effects on tumor cells (Example 6); type: cell-based, mouse; conditions: 5×10^2 cell/60mm; 400 nM CD or 3 µM CB T0-T84; 30 µM 3FT T24-T72; untreated 111
Description: In order to verify any possible interference between CD and 3FT actions on tumor cells, a series of colony forming assays has been carried out on C3H 10T1/2(v-src/v-myc).
The cells have been therefore plated on 60mm plates at a 5×10^2 cell/60mm density, at the culture conditions described in example 3, and the initial time of 12 hours have been subjected to the following treatments.
After the above administrations, cells were treated as described in example 3.

[6] = test system: tumor cells in culture; experiment: Dose/response: concentration eradicating proliferating / tumor cells (CBCT); type: cell-based; conditions: for CBCT, minimum functional concentration required to eradicate tumor cells in culture: standard conditions
Description: Concerning the concentration of class B compound (CBCT), it is comprised in a range that should be calculated as a function of the CT, the target tumor cell type and the half-life in culture of the administered class B compound.
In particular, for the trifluorothymidine this concentration is greater than or equal to 40 µM, in particular comprised in the range 10µM - 800 µM, preferably 50 µM; for the cytarabine, this concentration is generally greater than or equal to 40 µM, in particular comprised in the range 40 µM - 600 µM, preferably 40 µM; for the 6-thioguanine, this concentration is generally greater than or equal to 50 µM, in particular a concentration comprised in the range 50 µM - 600 µM, preferably 100 µM.
In fact, by virtue of the protective action of the class A compound on the normal cells, such concentration may be increased up to 10-20 fold the mentioned minimum concentration thereof.

[7] = test system: mixed culture of C3H10T1/2 and C3H10T1/2v-src/v-myc; experiment: Focus-forming assay, mixed culture of normal and tumor cells (Examples 3, 9); conditions: for requested time for normal cell monolayer reforming: after combined treatment with CD (Example 9); for proliferation restart time: normal cell monolayer reforming after combined treatment with CD (description); for normal cell monolayer / number of transformation foci: mixed culture, 400 nM CD T0-T84, class B drug T24-T72 (40 µM 3FT, 80 µM 2ClAd, 40µM Ara C); for normal cell monolayer: first entry of the cell (normal cells); for number of transformation foci: second entry of the cell (tumor cells), percentage of treated with respect to untreated (=100)
[8] = test system: C3H10T1/2; experiment: Focus-forming assay, culture of normal cells alone (Examples 3, 9); type: cell-based, mouse; conditions: C3H10T1/2 alone, 10^4 cells per plate; 400 nM CD T0-T84; class B drug T24-T72 (40 µM 3FT, 80 µM 2ClAd, 40µM Ara C); Confluent = completely formed monolayer
[9] = test system: C3H10T1/2 cells reversibly arrested in G0/G1 by growth factor deprivation; conditions: mouse, 48 h
Description: The choice of carrying out the assays on cells arrested in the G0/G1 phase by growth factor deprivation rather than on cells treated with cytochalasin D or analogues thereof was made for ease of assaying.
In a first assay 40µM 3FT for 48 h, in a second assay Ara C 40µM for 48 h, in a third assay 80µM 2ClAd for 48 h, in a fourth assay 100µM 6 thioguanine (6Thg) for 48 h, in a fifth assay 1µg/ml Doxorubicine (Doxo) for 48 h have been administered on the G0/G1 arrested C3H10T1/2 cells.
The above concentrations are the minimum for killing proliferating cells calculated on the basis of cell cycle duration.
After release from drug treatment, cells were washed 2x and left in low serum for other 12 h, to allow washing of residual drugs under non-proliferating conditions.
After the 24 h period in low serum, proliferation medium (DMEM +10% FCS), supplemented with 20µM BrdU in order to mark the DNA-synthesizing cells, has been additioned to the cell culture. After a 24-h stimulation, the cells have been fixed and processed as reported in Grossi et al. 1991 (18). The percentage of DNA-synthesizing cells in the 24-h labeling period has been detected by immunofluorescence, as reported in Grossi et al. 1991 (18).
The culture and assay conditions are those described in example 10, except for the pharmacological treatment, which in the present assay series consists of the following.

[10] = test system: control human lung fibroblasts (HF LXSN); experiment: Nuclei number state after cytochalasin D (Example 2); type: cell-based; conditions: 400 nM CD for 72 h
Description: (§4) Each cell culture was plated on 35mm plates at a 1×10^4cells/plate density, under the following conditions considered herein as standard conditions. Cells were grown on a plastic substrate (Falcon-BD), in a culture medium made of Dulbecco's modified Eagle's Medium supplemented with 2mM L-glutamine, antibiotics, 10% fetal bovine serum, at 37°C with 5% CO2 and 90% humidity. The following assays have been therefore carried out.
(§5) In an initial time of 12 hours c.ca (step common also to the other assays herein reported) cells were allowed to grow up, but within a density allowing their proliferation, thus ensuring the utmost reliability of the assay result, that otherwise could be altered by cells arrested for reasons other than compound administration. After this first step the following administrations have been carried out.
(§6) E6 is in fact an oncogene, the product thereof being capable of sequestering and inhibiting the p53 function, whereas E7 is another oncogene, the product thereof being capable of sequestering the Rb function. This assay series accordingly allows in fact to extend also to human cells the growth arrest, at the binucleate stage, by CD, as due to an active p53 pathway in normal cells, and at the same time it confirms the non-implication of Rb therein.
(§7) After the initial time of 12 h c.ca (see above) the following assays have been in particular carried out.
In a first assay series 400 nM CD for 72 h (T0-T72) or 0.11% DMSO for 72 h (T0-T72) as a control thereof, have been administered to control human lung fibroblasts (HF LXSN).

[11] = test system: human lung fibroblasts transformed with E6 (HF E6); experiment: as above; type: cell-based; conditions: 400 nM CD for 72 h
Description: as §4, §5, §6, §7
In a second assay series 400 nM CD for 72 h (T0-T72) and 0.11% DMSO for 72 h (T0-T72) as a control thereof, have been administered to human lung fibroblasts transformed with E6 (HF E6).

[12] = test system: C3H10T1/2v-src/v-myc cells; type: cell-based, mouse
From the text: In order to verify a possible interference on 3FT uptake by tumor cells, the compounds mentioned in example 7 have been assayed on C3H10T1/2v-src/v-myc cells, measuring the uptake of tritiated thymidine. It is well known in fact that the uptake mechanism of the latter and that of 3FT (and generally of antimetabolites) are the same (6).
Cells have been plated in a 24-well plate, with a 5x10^4 cells/well and the assays have been carried out under standard culture conditions, as described in example 1.
In a first assay 3000 nM CB for 24 h, in a second assay 400 nM CD for 24 h, in a third assays 650 nM Latrunculin B for 24 h, in a fourth assay 700 nM Jasplakinolide for 24 h and in a fifth assay 100 nM Condramide for 24 h, have been administered on the C3H10T1/2v-src/v-myc.
After said administrations, a 4µCi/ml tritiated Thymidine uptake has been carried out for 5 h for each assay, the above mentioned compounds being still present. Cells have been therefore washed 2x with PBS, extracted with 5% cold trichloroacetic acid and subsequently NaOH-lysed.
The various samples once additioned with scintillation liquid, have been analyzed in a β-counter. The emission values, normalized for the amount of proteins in each sample (quantified by Lowry method) are expressed in count values for min/microgram protein in column 3. As controls there have been considered: • a first C3H10T1/2v-src/v-myc cell culture let free to proliferate for the overall assay (12 h + 24 h + 5 h) the radioactivity thereof being determined at the β-counter. • a second C3H10T1/2v-src-myc cell culture let free to proliferate for the initial 12 h and for the pharmacological treatment assay (12 h + 24 h), then subjected to the uptake of 4µCi/ml tritiated thymidine for 5 h and subsequently subjected to uptake determination at the β-counter.

[13] = 5×10^2 cells, class A drug T0-T84 (400 nM CD or H2CB), 40 µM 3FT T24-T72
[14] = C3H10T1/2, 1×10^3 cells, class A drug T0-T84 (400 nM CD or H2CB), 40 µM 3FT T24-T72

O=c1[nH]c(=O)n([C@H]2C[C@H](O)[C@@H](CO)O2)cc1C(F)(F)F [3FT, 2'-deoxy-5-trifluoromethyluridine]
number of transformation foci [1]: complete death
number of colonies ([2]; 1×10^3 cells, class A drug T0-T84, 40 µM 3FT T24-T72): 0
number of colonies [2, 13]: 0
number of colonies ([2]; 5×10^3 cells, class A drug T0-T84, 40 µM 3FT T24-T72): 0
number of colonies [3, 14]: 0
number of colonies ([3]; C3H10T1/2, 1×10^4 cells, class A drug T0-T84, 40 µM 3FT T24-T72): 0
number of colonies ([3]; C3H10T1/2, 5×10^3 cells, class A drug T0-T84, 40 µM 3FT T24-T72): 0
number of colonies [4]: 0
Colonies [5]: 2
CBCT, minimum functional concentration required to eradicate tumor cells in culture [6]: 50 µM
requested time for normal cell monolayer reforming [7]: 5 days
proliferation restart time [7]: ~7 days

Nc1ccn([C@@H]2O[C@H](CO)[C@@H](O)[C@@H]2O)c(=O)n1 [Ara C, cytarabine]
normal cell monolayer [8]: 0
number of transformation foci [1]: 0
dosage increase that begins to entail a relevant toxicity [9]: 6 fold
CBCT, minimum functional concentration required to eradicate tumor cells in culture [6]: 40 µM
minimum concentration for killing at least 90% of the proliferating cells ([6]; within the time of the combined treatment (48 h)): 40 µM
requested time for normal cell monolayer reforming [7]: 5 days
normal cell monolayer [7]: 0 0
number of transformation foci [7]: 0 0
proliferation restart time [7]: ~7 days

C=C1[C@@H](C)[C@H]2[C@H](Cc3ccccc3)NC(=O)[C@]23[C@H](OC(C)=O)/C=C/[C@@](C)(O)C(=O)[C@@H](C)C/C=C/[C@H]3[C@@H]1O [cytochalasin D]
%>4N ([10]; >4 nuclei cells): 0%
%2N ([10]; binucleate cells): 57%
%1N ([10]; mononucleate cells): 40%
%3-4N ([10]; tri-tetranucleate cells): 3%
%>4N ([11]; >4 nuclei cells): 16%
%2N ([11]; binucleate cells): 34%
%1N ([11]; mononucleate cells): 12%
%3-4N ([11]; tri-tetranucleate cells): 38%
normal cell monolayer [8]: Confluent
number of colonies [2, 13]: 18
number of colonies [3, 14]: 49
CPM/µg prot. ([12]; 4µCi/ml Thymidine (H^3) 5 h after 24 h drug, concentration (nM) printed with the drug, control 505): 391 CPM/µg prot.
tritiated thymidine uptake, emission values ([12]; 4µCi/ml tritiated thymidine 5 h after 24 h drug (3000 nM CB, 400 nM CD, 650 nM Latrunculin B, 700 nM Jasplakinolide, 100 nM Condramide), control 505 cpm/µg): 391 cpm/µg
normal cell monolayer [7]: Confluent
number of transformation foci [7]: slight decrease
number of transformation foci ([7]; listed as CD): 30 and 40
